The campaign covered roughly 310,000 compounds. About 18,000 (5.8%) were called active. The shares of active, inactive and inconclusive entries below differ from those in the screen. The call rests on the fitted dose curve; in most records, active means well fitted inhibition curve with a large enough effect; inconclusive means small, poorly fitted or top-dose-only effect, or another doubt; inactive means no such curve, though single readings can be large or run the other way. No potency is given beside an inconclusive call; the fits are too rough.
Assay: Primary qHTS for delayed death inhibitors of the malarial parasite plastid, 48 hour incubation
Details: P. falciparum luciferase growth in erythrocytes; series mostly up to 28.7 µM; activity change, negative = inhibition: at the top concentration
Summary of the method: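 Luciferase-expressing P. falciparum in infected erythrocytes (2% hematocrit, 0.1% parasitemia final) in RPMI 1640/0.5% Albumax were exposed to compound for 48 hours at 37 C, 5% CO2; growth read as luminescence.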
On the % scale 0 is the no-effect control and ±100 the full control effect; potency means the concentration at half of the fitted maximal effect; tags describe the fitted curve by direction and shape.

SMILES	Potency	activity change, negative = inhibition
O=C(CSc1nnc(CN2CCCC2)n1-c1ccc(F)cc1)c1ccc2c(c1)OCO2	inconclusive [inhibitor, single point]	–
Oc1c(C(Nc2nccs2)c2ccc(C(F)(F)F)cc2)ccc2cccnc12 (centres undefined)	active: 0.37 µM	–
COc1ccc(NC(=O)/C=C/c2ccc(OC(F)F)cc2)cn1	inconclusive [inhibitor, partial curve, poor fit]	–
COc1ccc(N2CCN(C(=O)C3CCCN(S(=O)(=O)c4ccc(F)cc4)C3)CC2)cc1 (centres undefined)	inconclusive [inhibitor, single point]	–
O=C(NCCc1ccc2c(c1)OCCO2)c1cc(S(=O)(=O)N2CCCC2)ccc1Cl	inconclusive [inhibitor, single point]	–
CCC(=O)Nc1cc(-c2nn(C)c(=O)c3ccccc23)ccc1N1CCCCC1	active: 5.22 µM	–
CCOc1ccc(N2CC(C(=O)Nc3ccc(S(=O)(=O)Nc4nccs4)cc3)CC2=O)cc1 (centres undefined)	–	inactive: -6.91%
NS(=O)(=O)c1ccc(NS(=O)(=O)c2ccc(NC(=S)Nc3ccccc3)cc2)cc1	–	inactive: 9.99%
CCNC(=O)COC(=O)c1ccc(-c2nc3ccccc3s2)s1	–	inactive: 236%
O=C(OCC(=O)N1CCOCC1)c1cccc(S(=O)(=O)Nc2ccc(F)cc2)c1	inconclusive [inhibitor, partial curve, poor fit]	–
CC(C)NC(=O)C1CC(=O)N(c2ccc(F)c(Cl)c2)C1 (centres undefined)	inconclusive [inhibitor, partial curve, poor fit]	–
CCOC(=O)c1cc(C#N)c(Oc2ccccc2)nc1-c1ccccc1	inconclusive [inhibitor, single point]	–
CCS(=O)(=O)N1Cc2ccccc2CC1C(=O)Nc1ccc(C)cc1 (centres undefined)	–	inactive: 18%
O=[N+]([O-])c1cccc(-c2nc(-c3cccs3)c(-c3cccs3)[nH]2)c1	inconclusive [inhibitor, single point]	–
Cc1ccc(NC(=O)N2CCCc3ccccc32)cc1C	–	inactive: 100%
O=S(=O)(c1ccc(F)c(Cl)c1)N1CCN(C/C=C/c2ccccc2)CC1	inconclusive [inhibitor, single point]	–
COc1cc(/C=C2/C(=N)N3C=CSC3=NC2=O)ccc1OCCCOc1cc(C)ccc1C	–	inactive: 76.3%
CCOc1ccc(C(=O)CCC(=O)N2CCN(S(=O)(=O)c3cccc(F)c3)CC2)cc1	inconclusive [inhibitor, single point]	–
COc1ccc(NC(=O)Cc2nnc(SCC(=O)NC3CCCCC3)n2C)cc1	–	inactive: 13.9%

Reference: PubChem BioAssay AID504832 (National Center for Advancing Translational Sciences (NCATS), 2011)
